Results reported in PMC7819943, “Rice protein-binding microarrays: a tool to detect cis-acting elements near promoter regions in rice”.
The list shows a part of the results.

Target: T1, OsWOX13 (Oryza sativa, UniProt Q5QMM3 1-267)
T1 sequence: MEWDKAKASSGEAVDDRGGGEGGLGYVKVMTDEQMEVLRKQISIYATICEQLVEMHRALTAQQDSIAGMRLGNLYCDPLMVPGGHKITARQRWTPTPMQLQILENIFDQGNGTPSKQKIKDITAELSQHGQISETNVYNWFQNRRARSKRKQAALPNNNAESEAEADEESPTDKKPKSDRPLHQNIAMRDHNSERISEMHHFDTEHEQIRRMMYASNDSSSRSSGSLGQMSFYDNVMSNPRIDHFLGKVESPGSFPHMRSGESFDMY
Test: protein-binding microarray (RPBM); PBS, 2% BSA, 51.3 ng/ul salmon testes DNA, 50 uM zinc acetate, 200 nM TF, 25 C, 1 h; high values mean tight binding
Details: protein: recombinant; tags: N-terminal polyhistidine and DsRed monomer fusion (pET32a); label: CyDye5-dUTP incorporated in the synthesized complementary strand; 3' TTTTT single-stranded linker to array surface; dsDNA, one strand shown
Outline: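 Ni–NTA purification followed expression in E. coli BL21-CodonPlus of transcription factors fused N-terminally to a polyhistidine tag and DsRed. At 200 nM in PBS with 2% BSA, salmon testes DNA and 50 µM zinc acetate, the protein was incubated for 1 h at 25 °C with a custom Agilent array that had been primer-extended with Cy5-dUTP and blocked with 2% BSA. After washing, the array was read on an Axon 4000B scanner. The binding signal is per-feature fluorescence intensity in arbitrary units.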

| Sequence | binding signal |
| --- | --- |
| TATTCTCACCATCTAATTGATTGGAGGTAACCATATTCAACGGAGTCACCTAGTGCAG | 23100 fluorescence intensity (a.u.) |
| CTAGATTTATGGGTGATGTGTGATTAGGACTGCAGGATTACGGAGTCACCTAGTGCAG | 34000 fluorescence intensity (a.u.) |
| CCTTCATTAACATGATTATGGTTCATGCCAAATGCTTAGTCGGAGTCACCTAGTGCAG | 26900 fluorescence intensity (a.u.) |
| GTTAATTAAACTCAATATAAAGATGAGGAACGGCAAGTGACGGAGTCACCTAGTGCAG | 24800 fluorescence intensity (a.u.) |
| ACGCTTCTTAAATTTATAAATGGTGTCCTTCATACATAACCGGAGTCACCTAGTGCAG | 4270 fluorescence intensity (a.u.) |
| GATCGAATTGGTAAATCAAATGTCTCTAAATTCTCTCCATCGGAGTCACCTAGTGCAG | 4550 fluorescence intensity (a.u.) |
| ATTTTAATTACATTGTTGTTACACTATAATTACACCATAGCGGAGTCACCTAGTGCAG | 27100 fluorescence intensity (a.u.) |
| TTTCCTAATTTATATAGTACTCCTATCTCGTCAGCTGCTTCGGAGTCACCTAGTGCAG | 7930 fluorescence intensity (a.u.) |
| AAATTTGATTTCATAATTTCTAAATCTTGTATAAATGAAGCGGAGTCACCTAGTGCAG | 15700 fluorescence intensity (a.u.) |
| CTGATTAACTTGCGTGTTGCACTATCGATAGATGAGAGCACGGAGTCACCTAGTGCAG | 14100 fluorescence intensity (a.u.) |
| TGATGGATTGCCATCCTGATTAAGATTTCCTCCTAAAGAGCGGAGTCACCTAGTGCAG | 13800 fluorescence intensity (a.u.) |
| CGCTAATATTAAACTGAGGAATGTAGAGTCATCAGGTTTACGGAGTCACCTAGTGCAG | 3620 fluorescence intensity (a.u.) |
| CGACTCCAAATTAAATTTCATGAAATTTCAAAGAATGGCACGGAGTCACCTAGTGCAG | 8500 fluorescence intensity (a.u.) |
| GGTTGGACTGGCAAATTAAAGCCACAGTGACATGACCTGACGGAGTCACCTAGTGCAG | 5930 fluorescence intensity (a.u.) |
| TTCTGGAATATTGGAAATTGATTAATAACGGAAAGGAATACGGAGTCACCTAGTGCAG | 9420 fluorescence intensity (a.u.) |
| TAAAATTGATGTCATTAGATTTATCATTCAACAAGCTATCCGGAGTCACCTAGTGCAG | 27000 fluorescence intensity (a.u.) |
| CGAAGATTGATCGGATTTGAGGTCCCGCTTGAATCAGTTGCGGAGTCACCTAGTGCAG | 35000 fluorescence intensity (a.u.) |
| AAAATTATGGTAATTCAAAGTTAGAATGATAAATATTGTGCGGAGTCACCTAGTGCAG | 7040 fluorescence intensity (a.u.) |
| TCAAATTAAACTAGGTGAATATTATTGTTATGCATATAGGCGGAGTCACCTAGTGCAG | 11400 fluorescence intensity (a.u.) |
| CTGAAACTAAAGGCTTTGATTGATTTTCTAATCAATTGATCGGAGTCACCTAGTGCAG | 25200 fluorescence intensity (a.u.) |
| GACTAATTATGCTTAATAAATTCATCTCACAGTTTACATGCGGAGTCACCTAGTGCAG | 32600 fluorescence intensity (a.u.) |
| ATCTAATTTGCACCGGTTTTGATAGTTGAGGGACCCGTTGCGGAGTCACCTAGTGCAG | 25400 fluorescence intensity (a.u.) |
| AAGGTAAATTAGAAGGGGATATTTGTAATAAATTAGTTTACGGAGTCACCTAGTGCAG | 10000 fluorescence intensity (a.u.) |
| GGTATTCAATTTGGATTGATGGGAAACTTAAACTAGTGAGCGGAGTCACCTAGTGCAG | 18900 fluorescence intensity (a.u.) |
| ACCTAAATTGCCCTTTGGTTATGAGAACTTCGAGAAGACGCGGAGTCACCTAGTGCAG | 20200 fluorescence intensity (a.u.) |
| TACCTGTGACGGGCAATCGAAATGGTCACTGATGACCGTCCGGAGTCACCTAGTGCAG | 3320 fluorescence intensity (a.u.) |
| CTAATCTTGATTATTTCCATGTACTGTAGTATTGTACTGACGGAGTCACCTAGTGCAG | 7540 fluorescence intensity (a.u.) |

| Sequence | binding signal |
| --- | --- |
| ATATCGATCTCTCTTAATTAATTTCCCATCCAATCCAGTGCGGAGTCACCTAGTGCAG | 5100 fluorescence intensity (a.u.) |
| GGTGATGACATGCATCACCCACAATGACAACGAGCACTGCCGGAGTCACCTAGTGCAG | 5000 fluorescence intensity (a.u.) |
| GTACTAAAACCTCATTAATTGATCAAGGCAGCGAGTAGCCCGGAGTCACCTAGTGCAG | 13200 fluorescence intensity (a.u.) |
| ATTATATTAGAACAAATTAACATCCAAGAATCACTTTGTACGGAGTCACCTAGTGCAG | 4540 fluorescence intensity (a.u.) |
| ACTAATTGATCATCGTGATCGTCATCATCTTCATTTGTCTCGGAGTCACCTAGTGCAG | 39200 fluorescence intensity (a.u.) |
| TTGGATTTGAATAATTGGGAATCATCACAGTCCGTATGCACGGAGTCACCTAGTGCAG | 31900 fluorescence intensity (a.u.) |
| AAGCCTAATTAATCCGTCATTAGCAAATATTTACTGTAGCCGGAGTCACCTAGTGCAG | 27800 fluorescence intensity (a.u.) |
| AGTATATTTAATAATGAATTAAATGATAGGAATAGTTACTCGGAGTCACCTAGTGCAG | 6740 fluorescence intensity (a.u.) |
| ATATTGATTGATTGGTTATTCGCAAGAAACATGACTGTTCCGGAGTCACCTAGTGCAG | 63800 fluorescence intensity (a.u.) |
| TTTTATTGAGTTTATGCCTGTCAATTTTCAACCAAATTCACGGAGTCACCTAGTGCAG | 4650 fluorescence intensity (a.u.) |
| ACTGTAATTAGCCCAGCAAATTAATGTACAATGAACATGTCGGAGTCACCTAGTGCAG | 23400 fluorescence intensity (a.u.) |
| TTGTATAAATGAGCTATCAGATTGGCTATAGATAAATTGGCGGAGTCACCTAGTGCAG | 12000 fluorescence intensity (a.u.) |
| CTGATAGAAAATTGCAATCTTCCCACAGGCCAGGGCAGCGCGGAGTCACCTAGTGCAG | 33100 fluorescence intensity (a.u.) |
| TAAAACACGTGATTATACGCCAAAATCATACTGACGTGGGCGGAGTCACCTAGTGCAG | 8530 fluorescence intensity (a.u.) |
| TGTTACTCCATTACTTGATTATGCTCACTTATTTATTTATCGGAGTCACCTAGTGCAG | 4200 fluorescence intensity (a.u.) |
| TCTTCAATCAAACCCTAGAAAGTTCTACTACAGGTCACTACGGAGTCACCTAGTGCAG | 25600 fluorescence intensity (a.u.) |
| ATTAGCAATTAATTAATTATTAATTGGATAATTAATCACTCGGAGTCACCTAGTGCAG | 64800 fluorescence intensity (a.u.) |
| TGCAAATTTTGGACAGACACCAATCCAGATTTTCCGGGTGCGGAGTCACCTAGTGCAG | 9960 fluorescence intensity (a.u.) |
| AATTCACTGCTGTTAATTACACCAGCACTTATGAACAGTGCGGAGTCACCTAGTGCAG | 4980 fluorescence intensity (a.u.) |
| AAGGATTGCTATGATTCATATTTGTCACCGTGGGTACCAGCGGAGTCACCTAGTGCAG | 4490 fluorescence intensity (a.u.) |
| TACCTGATGAGTGATAAGACTCAACTGACGTGCTGTGCTGCGGAGTCACCTAGTGCAG | 7380 fluorescence intensity (a.u.) |
| GCTTGTTTAATGTTAATTATTGTTATGTTTTGGTTAAACTCGGAGTCACCTAGTGCAG | 6820 fluorescence intensity (a.u.) |
| TACTAAAATTACATATGTAATTTAGAGACTTACATATATACGGAGTCACCTAGTGCAG | 10200 fluorescence intensity (a.u.) |
| AAAATCCAATCAAGCCACCCAATTCCATGCTTTTCACTTTCGGAGTCACCTAGTGCAG | 8420 fluorescence intensity (a.u.) |
| AATTTTAAGTTGTATGATTATAATTATTTAAGTGACATAACGGAGTCACCTAGTGCAG | 5960 fluorescence intensity (a.u.) |
| GAGAGATGATGGGCTGGTTTGGTTTGAGGCCTAAATTAGGCGGAGTCACCTAGTGCAG | 3660 fluorescence intensity (a.u.) |
| CAAAATTTGAATTGTTCAAATAGAGCCAGACGGAGAAATGCGGAGTCACCTAGTGCAG | 5310 fluorescence intensity (a.u.) |
